Experimental data: ChEMBL document CHEMBL4888484, “Replenishing the malaria drug discovery pipeline: Screening and hit evaluation of the MMV Hit Generation Library 1 (HGL1) against asexual blood stage Plasmodium falciparum ,using a nano luciferase reporter read-out” (2022)
The whole screen tested about 150,000 compounds, of which about 540 (0.36%) showed an effect of 50% or more. This is one part of the list.

test system: Plasmodium falciparum; assay: Primary screen in NF54 nanoGlo assay, in single point, at 2uM, 72h; a lower Z score goes with more inhibition; type: functional, Erythrocyte; conditions: timepoint 72 hour

| Structure (SMILES) | % Inhibition [%] | Z score |
| --- | --- | --- |
| Cc1c([C@@H]2[C@@H](CNC(=O)N[C@H]3CC[C@H]3c3ccccc3)CC(=O)N2C)cnn1C | 10 | -1.91 |
| NC(=O)Cn1ccnc1C1CCN(C(=O)c2cccc3c2NCCC3)CC1 | -23 | 1.99 |
| CCN(Cc1nc(C(C)C)no1)C(=O)Cn1c(=O)cnc2ccccc21 | 9 | -1.25 |
| CC[C@H](NCCCO)c1cccc(Cl)c1F | -2 | 0.2 |
| CCCN(C[C@H]1CCOC1)C(=O)Nc1cccc(F)c1C | 0 | 0.05 |
| CCn1c(-c2ccccc2F)nc2cc(NC(C)=O)cc(C(=O)N[C@H]3CS(=O)(=O)C[C@@H]3O)c21 | 1 | -0.11 |
| N#Cc1cc(Cl)ccc1NC[C@@H](CO)Cc1ccccn1 | -12 | 1.32 |
| Cc1cc(NC(=O)N2CCC[C@H](S(=O)(=O)N3CCc4ccccc43)C2)no1 | -16 | 1.45 |
| Cc1cccc(-c2ccc(C(=O)N3CCOCC3)c(=O)[nH]2)c1 | -4 | 0.54 |
| CC(C)COC1CCN(C(=O)[C@@H]2Cc3ccccc3O2)CC1 | 7 | -1 |
| CCN(Cc1nc(C)no1)C(=O)c1cc(Cl)c(C)c(Cl)c1 | -5 | 1.05 |
| CC(C)(O)CNC1CCC2(CC1)CCN(C(=O)OC(C)(C)C)C2 (stereo unspecified) | -6 | 1.22 |
| C[C@]1(O)CCN(Cc2cccc(OC(F)F)c2)C[C@H]1O | -1 | 0.1 |
| O=C(c1ccc(-c2ccccn2)[nH]c1=O)N1CCOC2CCCCC21 (stereo unspecified) | -9 | 0.86 |
| CC(C)(C)c1csc(CC2CCN(c3nccn4nnnc34)CC2)n1 | -15 | 1.92 |
| CCS(=O)(=O)N1CC(Cc2nc(-c3cccnc3)no2)C1 | -6 | 0.78 |
| O=S(=O)(c1cccc(Nc2nnc(-c3ccc(F)c(F)c3)c3ccccc23)c1)N1CCCC1 | -17 | 2.46 |
| O=C([C@H]1C[C@H](F)CN1)N1CCN(c2ccc(C(F)(F)F)cc2)CC1 | -2 | 0.14 |
| COc1cc2c(cc1CN(C)Cc1nc3ccc(F)cc3[nH]1)OCO2 | -5 | 0.67 |
| CN(CC(O)CO)c1ccnc(N2C[C@@H]3[C@H]4CC[C@H](CC4)[C@@H]3C2)n1 (stereo partly specified) | -30 | 2.6 |
| Cc1nc(CNc2ccnc3ccsc23)ccc1[C@H](C)O | -1 | 0.14 |

| Structure (SMILES) | % Inhibition [%] | Z score |
| --- | --- | --- |
| CCn1ncc(NC(=O)N(C)Cc2cccc(=O)[nH]2)c1C(F)(F)F | -18 | 1.99 |
| CC(C)(C)C(=O)CN1C(=O)N[C@@]2(CCS(=O)(=O)c3ccc(F)cc32)C1=O | 5 | -0.52 |
| O=S(=O)(c1ccc(OCC(F)(F)F)nc1)N1CCCc2ccccc21 | -12 | 2.38 |
| O=C(Nc1cnn2c1NCCC2)c1scc2c1CCCC2 | -6 | 1.2 |
| CN=C(NCCCOC[C@H]1CCOC1)NC1CC(c2ccccc2)C1 (stereo partly specified) | -4 | 0.38 |
| O=C(NCc1cccnc1N1CCCC1)c1cccnc1O[C@H]1CCOC1 | -4 | 0.73 |
| C[C@@H]1CN(C[C@@H]2CN(C(=O)C3CCC3)C[C@@H]2CO)C[C@H](C)O1 | -8 | 1.37 |
| CC(C)(C)c1ccn(C2(C(=O)O)CCN(Cc3cccnc3N)CC2)n1 | 6 | -0.86 |
| CCN1CCC(CC(=O)N2CCc3onc(-c4ccccc4)c3C2)CC1 | 2 | -0.22 |
| COc1ccc(C[C@@]2(C)CNC(=O)O2)cc1OC | -15 | 1.51 |
| Cc1noc(-c2ccccc2Cl)c1C(=O)NCCc1cccc(Cl)c1 | -13 | 2.48 |
| C[C@@H](CC#N)N(C)C(=O)Nc1cnn(Cc2ccccn2)c1 | -9 | 1.15 |
| CCn1cc(CN[C@@H](C)c2cc3ccccc3o2)cn1 | -1 | 0.1 |
| CC(C)Cn1cc(NCc2cnn(C(C)(C)C)c2)cn1 | -17 | 1.98 |
| Fc1ccc(-c2cnc3n2C[C@H](CNCc2ccc4c(c2)OCO4)OC3)cc1 | 16 | -1.92 |
| Cc1c(S(=O)(=O)N[C@H]2CCCN(CC(F)(F)F)C2)cnn1C | 7 | -0.56 |
| CC(C)CC(=O)N(CC(=O)N(Cc1ccco1)C[C@H]1CCCO1)CC(C)C | 9 | -1.42 |
| COc1cccc(Cn2c(=O)c3sccc3n(CC(=O)NCCc3ccc(Cl)cc3)c2=O)c1 | 7 | -0.93 |
| CCc1ccc(C(=O)N2CCCN(c3nc(CCC(C)C)nc4c3cnn4-c3cccc(Cl)c3)CC2)cc1 | -8 | 1.2 |
| O=C(COC1CCCCC1)Nc1ccncc1F | -1 | 0.1 |
| COC(=O)[C@](C)(NCc1nc2ccccc2o1)c1cc(F)ccc1F | 2 | -0.24 |

| Structure (SMILES) | % Inhibition [%] | Z score |
| --- | --- | --- |
| Cc1cc(C)nc(Cn2ccnc2-c2oc3ccccc3c2C)n1 | 17 | -2.15 |
| O=c1ccc(-c2ccccn2)nn1CC1CC2(CCC2)C1 | 0 | -0.03 |
| Cc1csc(CNC(=O)c2nnc3nc(C)cc(C)n23)n1 | 7 | -1.07 |
| CC[C@@H](C(=O)NC(C)C)c1ccccc1 | -4 | 0.76 |
| CCOCc1nc(-c2ccc(-n3cccn3)cc2)n(C2CCN(C)CC2)n1 | 0 | -0.05 |
| CCC(NC(=O)Cc1ccncc1)C(O)c1c(F)cccc1F (stereo unspecified) | 5 | -0.93 |
| CC(C)CCNC(=O)c1nc(-c2ccc3c(c2)OCC(=O)N3C)no1 | -16 | 1.88 |
| Cc1ccc(N2C[C@@H](C(=O)Nc3ccccc3C(=O)NCCc3ccccc3)CC2=O)cc1 | 12 | -1.47 |
| Cc1cc(C(=O)NCc2ccc(-c3ccc4c(c3)CCO4)cc2)on1 | -4 | 0.47 |
| O[C@@H](Cc1ccccc1)c1ncnn1CCc1ccccc1 | -10 | 2 |
| CCOc1ncccc1-c1cn(C(C)C)nc1C | -7 | 1.27 |
| CCC1(CC)C(NC(=O)C2CCC(C(=O)O)CC2)C(C)C1OC (stereo unspecified) | -3 | 0.32 |
| Cc1ccc2c(c1)C[C@@H](C(=O)NCCc1csc(-c3ncccn3)n1)N2 | 3 | -0.5 |
| O=C(Nc1ccc(Oc2nncc3ccccc23)cc1)c1ccon1 | 28 | -3.76 |
| O=C(NCc1cccnc1)[C@]1(F)CCCN(S(=O)(=O)c2cccc3nsnc23)C1 | -10 | 0.85 |
| COc1cccc(-n2cc(NC(=O)[C@@]3(C)CCC(=O)NC3)nn2)c1 | 13 | -2.46 |
| COc1ccc2c(c1)Cc1c-2nc(N)c(C#N)c1-c1ccncc1 | -2 | 0.23 |
| CC(C)N1CCN(C(=O)c2cnn(-c3ncc4c(n3)-c3ccccc3CCC4)c2C2CC2)CC1 | 19 | -2.37 |
| O=C(CC(=O)N1CCC(Cc2ccccc2)CC1)N1CCC(Cc2ccccc2)CC1 | -11 | 1.38 |
| FC(F)(F)c1cccc(Nc2c3ccccc3nc3ccccc23)c1 | 10 | -0.85 |
| CC(C)C[C@H]1CCCCCN1C(=O)c1cc(OC(F)F)n(C)n1 | 12 | -2.31 |

| Structure (SMILES) | % Inhibition [%] | Z score |
| --- | --- | --- |
| CN(CC1OCc2ccccc2CO1)C1CCCCC1 | -3 | 0.61 |
| c1ccc(-c2nc([C@H]3CCOC3)no2)c(-c2nnn[nH]2)c1 | -11 | 2.34 |
| CC(C)c1cc(NS(=O)(=O)c2cncc(Cl)c2)on1 | -8 | 0.95 |
| CC1CCN(c2nnc(-n3cccc3CN3CCCC3)s2)CC1 | -5 | 0.52 |
| O=C(c1csc2c1CCCC2)N1CCCCC1 | 16 | -1.86 |
| CC1(C)CC(O)(C(=O)NCCCc2nc[nH]n2)C1 | 5 | -0.8 |
| O=C(c1ccon1)N1CCc2ncnc(N3CCC[C@H](CO)C3)c2CC1 | -11 | 1.82 |
| COc1ccc(C[C@@H]2NC(=O)[C@H](C)NC2=O)cc1 | -13 | 1.28 |
| COc1ccc2c(O)nn(S(=O)(=O)C[C@H]3CCCO3)c2c1 | -13 | 1.81 |
| COc1ccc(Oc2cn[nH]c2-c2ccc(OCc3ccc(Cl)c(Cl)c3)cc2O)cc1 | -2 | 0.23 |
| O=C(c1ccc(F)cc1)N1CCC(c2nc(-c3ccc4c(c3)OCO4)no2)CC1 | -13 | 2.29 |
| O=C(c1cn2c3c(cccc3c1=O)CCC2)N1CCN(c2ccccc2F)CC1 | -1 | 0.18 |
| OC[C@H]1C=C[C@@H](NCc2cccc(Cl)c2)C1 | -2 | 0.3 |
| O=C(C[C@@H]1NC(=O)NC1=O)N[C@@H]1C[C@H]1c1cccc(Cl)c1 | -4 | 0.62 |
| CS(=O)(=O)N(Cc1csc(-c2cccs2)n1)C1CCN(C(=O)c2ccccc2)CC1 | -16 | 2.07 |
| CCn1c([C@H](O)c2ccccc2)n[nH]c1=O | -5 | 0.66 |
| Nc1nccc(N2CCC(n3nccc3NC(=O)c3cccc(F)c3)CC2)n1 | -3 | 0.42 |
| Cc1cccc(Oc2nc3ccccc3n3c(=O)n(CC(=O)Nc4ccc5c(c4)OCCO5)nc23)c1C | -2 | 0.22 |
| CCCCCC(=O)N(CC(=O)N(Cc1ccccc1)Cc1cccn1Cc1cccc(OC)c1)[C@@H](C)CC | -8 | 1.08 |
| COc1ccc(CN2CC=C[C@@H]2C(C)C)cc1F | 4 | -0.73 |
